In the supplement of paper PMC12632987:
The full ranking holds about 4,500 sequences; the median of “median log2 fold change of GCK-ALFA target abundance (FLAG IP / Myc IP barcode read proportion)” is about 0.078, and the lowest 2% start at about -0.6. The list shows a part of the results.

B1: GBRAP_184_5293 (protein)
chain: KVVEVVIEAETEEEAIKQLKKAAEEAKKKGVKLKIYLYLKNVSVEGFKKIAELLKKLKEEGIIESATVHILDERSEEELDKLVEIADKAGVKLVVALSDE
B2: GBRAP_128_3243 (protein)
chain: SQEELLAEAKELIDKIVKADVEEARELTRELLELMKELDDEARDEVADYFIEKLKKLSAEKLEAVADVLRERRPELDPYTAALVAGVEIEALELAEEQEE
B3: GBRAP_153_3950 (protein)
chain: MEEEKKLLEEAKKLIKQIKKTGGDPELIKKFAELFTKLNEESRKELFKELESLPEELQKLIVKTLIKEAGVSPEEIIEYIVGTSEEFEAAVLEAIVEASK
B4: GBRAP_95_7044 (protein)
chain: DDLVLAAESDAEVLETAVDLGDEEAARRAALRLLELLLELPEDKVKLSLSVESVKVIIEVAKENFDKETAIEALEKLAKFLTDEEAKKVVEEAIKELKKE
B5: GBRAP_160_4326 (protein)
chain: SERVEKLKKEVEEEFEELKEMIEGESIEQRIVLFRGTFGEILMLLSEDESVSDELLDKVREIEDEAVKTLEENPDLTEEEIKELIDEAEEKVLKAIEELA
B6: GBRAP_186_5395 (protein)
chain: EIDEEEEDKILKELEEKYDIVIVVYLDSKKSLEEKIKIMENDTEAAEALAEETGKKVALVFRAVDDEENLKKLKEHVEKLNKEAEEKSGVKVELIGHKKK
B7: GBRAP_184_5301 (protein)
chain: KVKNVFVEADTAEEAIAQIEKLAKEAKEAGVKLNIYLELKNISIEGFKEIAEKLKELKEAGIIEDATIEILDDLSEEEIDERIKIADEAGVKLVVALSDE
B8: GBRAP_52_5935 (protein)
chain: MRERIRELVERLVELVKEGKLEEARKLAREIVETLSEEELRLFIEELAELARTAPKEDIDYILEAAEIVAEEMERGGWDEVLADELLARVAAAAYENLQR
B9: GBRAP_160_4363 (protein)
chain: SPELKALAEEIEELRKEFEEEAKDLSPEEVRILGKGVLSEIGALIWSNPAVSDETEDKIFEIIDKALKEIDAKKDASPEEIVAIVTKAADEIIKLVREEA
B10: GBRAP_160_4575 (protein)
chain: SAAMEKLIEEIKKLTEEALELLEDESYEQRLAVVRVLGGDILLLLEENPEASEELEEEAAAIMDELVATLEANPDLTAEEIKALVKEATEKIIELIKKEA
B11: GBRAP_11_2653 (protein)
chain: KKEVLKEAAKLAAEAAATVDQLIAAGVDDAELRAKATALINELRELVKKHGSPALQSEVDVAVELWEELLADPANAEAYARELRAALRVLEGNFLLEIEE
B12: GBRAP_128_3493 (protein)
chain: STAEAVAQTRRLMEAIGRADPEERRRLTRELVALMASADPETAEAMADEAIELLPTLSAEALEVVADTLAELQPSLDPYVANLVADIRVEALNEREEKEE
B13: GBRAP_43_5795 (protein)
chain: DKEWVEGALDFAETALETPEITDETKAKIVVDAIEIAIEEGLLTPEELKKLLEKLEKSVSPEVAAKALEEILKKAKELGAPKELLKVIEEALKRAKKKLE
B14: GBRAP_52_6039 (protein)
chain: MEEEMRRKAEEIVELVKAGRRAEAEARIRELVATWSEEELELLGEELARLAREAEPEDLDAVMEAALMLADALEAAGYDPAFADDLLARVAAAAVENLQR
B15: GBRAP_80_6791 (protein)
chain: AEEELKEYLEEIEKLDKEIAERVKRIVERAKELGVSLETLAEFAKAIAELLKVDKEKAREIVEELEEVLEEEEEEGNRENAEAALRVYAGQALLEVEELE
B16: GBRAP_160_4769 (protein)
chain: KEKLKELKKEVEEIFEEYIELLKESEKEEAVTIVRGAAGEVLMEVMSSDAASEELEEKIAKILDETIKTAEENADKPVEWFIKLLEESKKKILELIEKEI
B17: GBRAP_57_6473 (protein)
chain: MERLKKVEEHAERALRLIEEGAPEEEILEEIRKMLEELSEETLRDILLIADPSAEYDISKEEAIERLLELARRYLEEGDLEKVRRLVELIEGEAEMEATE
B18: GBRAP_166_4902 (protein)
chain: NNKEKIEKLKKEAEELIKKFEEADEEEAWELVIEFGEILEELKKLGMEEEEILELVRKLLKVAKEKGFNVRVVAGIIANVADFDEEELDKLDEIVEEVEA
B19: GBRAP_80_6751 (protein)
chain: ARARLEAALAELKALDPELGARLAAVLERALEAGVDARVLARTVEALVELAKLDLEKARELAERLIAELTAALEAGDLEAATAVLVDAESDALLAVEELE

Biological target: GABARAP, O95166
Sequence (O95166 whole entry, the tested form may be a part): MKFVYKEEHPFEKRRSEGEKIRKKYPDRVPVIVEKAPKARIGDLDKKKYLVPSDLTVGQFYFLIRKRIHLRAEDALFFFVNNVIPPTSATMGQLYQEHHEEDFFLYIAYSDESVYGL
Test: median log2 fold change of GCK-ALFA target abundance (FLAG IP / Myc IP barcode read proportion) (log2 ratio); each designed protein is fused to an ALFA-tag nanobody in HEK293 cells to bring the named protein to FLAG-tagged glucokinase (GCK); Myc marks an untargeted standard; higher = target protein stabilised (more abundant)
Conditions: target protein: 3xFLAG-MCP-GCK-ALFA reporter; HEK293 landing pad (RPLP)
In short: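 Sequencing of reverse-transcribed, amplified circular RNA barcodes from anti-FLAG and anti-Myc immunoprecipitates provided the readout for an ALFA-nanobody-fused binder library recombined into HEK293 landing-pad cells. Those cells were induced with 2 μg mL^−1 doxycycline, transfected with a plasmid expressing a FLAG-tagged target and a Myc-tagged standard, and lysed after 48 h. Target abundance is the per-binder median log2 ratio of FLAG to Myc barcode read proportions. Only barcodes at a proportion of ≥10^−7 in both replicates and binders with ≥3 barcodes per replicate were kept, with a 10^−6 pseudocount added before the two replicates were pooled.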

| Binder | median log2 fold change |
| --- | --- |
| B1 | 0.275 |
| B2 | 0.147 |
| B3 | 0.381 |
| B4 | 0.287 |
| B5 | 0.00433 |
| B6 | -0.133 |
| B7 | -0.0228 |
| B8 | 0.112 |
| B9 | -0.231 |
| B10 | 0.0746 |
| B11 | 0.269 |
| B12 | 0.206 |
| B13 | -0.0146 |
| B14 | -0.911 |
| B15 | -0.0155 |
| B16 | 0.115 |
| B17 | 0.161 |
| B18 | -0.0212 |
| B19 | 0.00942 |
